From PubChem BioAssay AID1768 (National Center for Advancing Translational Sciences (NCATS), 2009)
Among all 270,000 compounds or so, about 620 (0.23%) were called active. The shares of active, inactive and inconclusive entries below differ from those in the screen. Calls follow the shape of the dose curve; as a rule, active = well fitted inhibition curve with a large enough effect in the polarisation, with a control signal flat (not every such curve was filed as active); inconclusive = small, poorly fitted or top-dose-only effect, or effect the other way, or a change in a side signal; inactive = no such curve, though single readings can be large or run the other way; the % refers to the polarisation. Potencies of inconclusive entries are doubtful fits and often do not repeat. A note “side channel” means that the fit belongs to a control or component signal, not to the main read-out.

biological target: Menin (Homo sapiens) (UniProt O00255); test: qHTS Assay for Inhibitors Targeting the Menin-MLL Interaction in MLL Related Leukemias: Competition With Texas Red Labeled MLL-derived Mutant Peptide; details: fluorescence polarization; series mostly up to 61.6 µM
Chain of UniProt O00255 (O00255 whole entry, looked up): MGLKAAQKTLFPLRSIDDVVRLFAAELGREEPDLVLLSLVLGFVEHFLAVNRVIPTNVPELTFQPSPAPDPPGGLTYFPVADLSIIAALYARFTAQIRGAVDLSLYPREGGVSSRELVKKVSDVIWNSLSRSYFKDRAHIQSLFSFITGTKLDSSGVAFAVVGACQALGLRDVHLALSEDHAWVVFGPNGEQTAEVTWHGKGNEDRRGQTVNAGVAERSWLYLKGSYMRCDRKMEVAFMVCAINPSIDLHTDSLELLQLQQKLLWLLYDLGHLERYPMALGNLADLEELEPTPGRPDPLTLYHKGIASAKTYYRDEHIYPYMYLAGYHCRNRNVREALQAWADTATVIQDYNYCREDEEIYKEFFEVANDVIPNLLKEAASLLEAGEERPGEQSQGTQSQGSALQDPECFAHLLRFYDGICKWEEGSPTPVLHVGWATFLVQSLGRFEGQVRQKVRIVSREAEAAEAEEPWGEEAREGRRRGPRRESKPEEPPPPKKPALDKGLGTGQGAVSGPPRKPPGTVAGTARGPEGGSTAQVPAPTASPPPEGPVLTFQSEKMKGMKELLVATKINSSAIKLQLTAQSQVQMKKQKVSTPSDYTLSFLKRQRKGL
Potency is read from the fitted curve at half-maximal effect; tags tell the direction and shape of the fitted curve or compound fluorescence and quenching.

Potency, inactive:
COc1cc(/C=N/NC(=O)c2cc(-c3cccn3C)n[nH]2)cc(OC)c1OC
Cc1cc(C)c(C#N)c(SCc2ccc(C#N)cc2)n1
C/C(N)=C(/C#N)C(=O)CSc1ccc2c(c1)OCCO2
C=CCn1c(SCCOc2ccc(OC)cc2)nnc1C(C)NC(=O)Cc1ccc(OC)cc1 (stereo not drawn)
CCOC(=O)c1ccc2nc(Nc3nc4ccc(F)cc4s3)sc2c1
O=C(O)c1cc2cc(Cc3cccnc3)ccc2o1
COc1ccc(-c2ccc(OC)c(C3C4C=CCC(C)C4C(=O)N3Cc3ccccc3)c2)cc1C (stereo not drawn)

Potency, inconclusive:
CCOc1ccc2nc(NC(=O)CSc3nc4ccccc4c(=O)n3Cc3ccco3)sc2c1 25.1 µM [inhibitor, single point]
COc1cc(C(=O)Nc2ccccc2N2CCCCC2)cc(OC)c1OC 35.5 µM [inhibitor, single point]
COc1ccc(S(=O)(=O)N2CCC(O)(c3ccc(Cl)cc3)CC2)cc1 14.1 µM [quencher, side channel, partial curve]
CCC(C)(C)c1ccc(OCCCC[n+]2cccc(C)c2)c(C(C)(C)CC)c1 10 µM [fluorescent, side channel, partial curve]
COc1ccc(S(=O)(=O)NCC2CCCN(Cc3ccccc3C)C2)cc1 (stereo not drawn) 12.6 µM [fluorescent, side channel, partial curve]
C=C(C)COc1ccc(-c2ncnc(C(F)(F)F)c2-c2ccccc2)c(O)c1 39.8 µM [inhibitor, single point]
COc1ccccc1N1CCN(C2CCCN(Cc3ccccc3OCCO)C2)CC1 (stereo not drawn) 0.891 µM [fluorescent, side channel, full curve, poor fit]
O=C(c1ccc([N+](=O)[O-])cc1)n1nc(-c2ccccc2)nc1NCc1ccccc1 35.5 µM [inhibitor, partial curve]
COc1ccccc1NS(=O)(=O)c1cccc(C(=O)N/N=C/c2cn(-c3ccccc3)nc2-c2ccccc2)c1 3.16 µM [inhibitor, full curve]
Nc1ccc(C(=O)OCc2nc3cc4ccccc4cc3[nH]2)cc1 28.2 µM [quencher, single point]
COc1ccccc1NC(=S)N/N=C1\CC(C)(C)Oc2ccc(O)cc21 10 µM [quencher, side channel, partial curve]
Cc1ccc(C2=NN(C(=O)c3cccs3)C(c3ccccc3O)C2)cc1 (stereo not drawn) 17.8 µM [fluorescent, side channel, partial curve]
O=C(C1=C[C@H](c2ccccc2)C[C@H](OCc2ccc(CO)cc2)O1)N1CCN(Cc2ccc3c(c2)OCO3)CC1 1.78 µM [fluorescent, side channel, full curve, poor fit]
CCCCCn1c(CN2CCCCC2C)nc2c1c(=O)n(C)c(=O)n2C (stereo not drawn) 8.91 µM [inhibitor, single point]
CC(C)=CCC/C(C)=C/CCC(C)NCCN1CCNCC1 (stereo not drawn) 35.5 µM [fluorescent, side channel, single point]
CCOc1ccc(-c2nnn(CC(=O)N3CCCC(C)C3)n2)cc1 (stereo not drawn) 39.8 µM [inhibitor, single point]
CN(C)c1ccc(NC(=O)c2cn(-c3ccccc3)nc2-c2cccs2)cc1 8.91 µM [quencher, side channel, partial curve]
CCN(CC)S(=O)(=O)c1cc(OC)c(C)cc1C 7.08 µM [fluorescent, side channel, full curve, poor fit]
Cc1nn(C)c(Cl)c1CN1CCCC(C(=O)Nc2cccc(-n3cccn3)c2)C1 (stereo not drawn) 1.78 µM [inhibitor, full curve, poor fit]
Cc1cc(Nc2ccc(Br)cc2)nc(-c2ccccc2O)n1 7.94 µM [quencher, side channel, full curve]
S=c1[nH]c(-c2ccc(Cl)cc2)cs1 14.1 µM [quencher, side channel, partial curve]
O=C(Nc1ccsc1C(=O)O)c1cccc(Oc2ccccc2)c1 35.5 µM [quencher, side channel, single point]
C=C1c2cccc(O)c2C(O)=C2C(=O)[C@]3(O)C(O)=C(C(N)=O)C(=O)[C@@H](N(C)C)[C@@H]3[C@@H](O)[C@H]12 14.1 µM [quencher, partial curve]
CC(C)(C)NC(=O)CN1C(=O)/C(=C/c2ccccc2)SC1=S 17.8 µM [inhibitor, partial curve]
COc1ccc(CNC(=O)Nc2ccc(C)c(C)c2)cc1 39.8 µM [fluorescent, side channel, single point]
COc1cc(N=Nc2ccc3ccccc3c2)ccc1O 28.2 µM [quencher, side channel, partial curve]
COc1ccc2c(c1)c1ccccc1n2C 39.8 µM [quencher, side channel, single point]
O=C(CCn1c(=O)oc2ccccc21)N(Cc1ccccc1)c1ccccc1 7.94 µM [fluorescent, side channel, partial curve]
CCOC(=O)c1cc(OC(=O)c2cccc([N+](=O)[O-])c2)n(-c2ccccc2)n1 14.1 µM [quencher, side channel, partial curve]
COc1c(Br)cc(/C=N/n2c(-c3ccccc3)n[nH]c2=S)c(O)c1Br 25.1 µM [quencher, side channel, single point]
O=C(CNC(c1ccccc1)c1ccccc1)Nc1ccccc1Br 8.91 µM [fluorescent, side channel, partial curve]
